# Results from the supplement of paper PMC4604168 (melanoma cell lines).
# Some of the results follow. Single values are uncertain, as repeats are few or missing.
# How the values were obtained:
# Assay in all cases: cell count relative to DMSO control; melanoma cells; higher = more viable cells
# Conditions in all cases: library dose: standard library concentration; 72 h; first compound 2 µM
# [1] = test system: G361
# [2] = test system: IPC-298
# [3] = test system: IST-MEL1
# [4] = test system: LB2518-MEL
# [5] = test system: LOXIMVI
# [6] = test system: MEL-HO
# [7] = test system: MZ2-MEL
# [8] = test system: MeWo
# [9] = test system: RPMI7951
# [10] = test system: RVH-421
# [11] = test system: SkMel28
# [12] = test system: SkMel2
# [13] = test system: SkMel30
# [14] = test system: SkMel5
# [15] = test system: UACC257
# [16] = test system: UACC62
# [17] = test system: WM115
# [18] = test system: WM1716
# [19] = test system: WM1745
# [20] = test system: WM3526
# 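Further: cells treated in 1,536-well plates, then fixed and DAPI-stained, with nuclei counted from automated high-throughput microscope images.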
Structure (SMILES),cell count [1] [%],cell count [2] [%],cell count [3] [%],cell count [4] [%],cell count [5] [%],cell count [6] [%],cell count [7] [%],cell count [8] [%],cell count [9] [%],cell count [10] [%],cell count [11] [%],cell count [12] [%],cell count [13] [%],cell count [14] [%],cell count [15] [%],cell count [16] [%],cell count [17] [%],cell count [18] [%],cell count [19] [%],cell count [20] [%]
C[C@@H](N)c1ccc(C(=O)Nc2ccnc3[nH]ccc23)cc1 + C=CCNC1=C2C[C@@H](C)C[C@H](OC)[C@H](O)[C@@H](C)/C=C(\C)[C@H](OC(N)=O)[C@@H](OC)/C=C\C=C(/C)C(=O)NC(=CC1=O)C2=O [Tanespimycin] (partner dose 0.01 µM),47.4,84.8,60.2,76.3,103,66.9,50.9,66.4,8.31,61.6,41.3,96.9,86.6,48.3,74,47.3,24.8,29.3,38.1,67.8
CCCCCCCCCCCCCCCCCCOP(=O)([O-])OC1CC[N+](C)(C)CC1 [Perifosine] + CN1CCN(c2ccc3nc(-c4c(N)c5c(F)cccc5[nH]c4=O)[nH]c3c2)CC1 [Dovitinib] (partner dose 0.5 µM),53.2,63.3,76,58.9,91.4,70.3,37.5,60.2,10.8,65.6,45.2,55.9,87,62.7,78.7,77.7,76.4,72.3,47.5,73.8
Cn1sc(=O)n(Cc2ccccc2)c1=O + NC(=O)Nc1cc(-c2cccc(F)c2)sc1C(=O)N[C@H]1CCCNC1 [AZD7762] (partner dose 0.1 µM),93,93.9,90.7,64.5,91,89.2,107,80.4,60.6,102,35.2,93.1,108,81.7,114,68.5,80.7,89.1,87.6,64.3
CCCCCCCCCCCCCCCCCCOP(=O)([O-])OC1CC[N+](C)(C)CC1 [Perifosine] + O=C(O)c1ccc2c(c1)nc(Nc1cccc(Cl)c1)c1ccncc12 [CX4945] (partner dose 2 µM),58.4,81.5,80.1,101,49.5,54.8,73.7,83.5,25.1,92.4,70.3,52,68,77.4,110,76.2,94.8,82.4,77.3,56
CCCCCCCCCCCCCCCCCCOP(=O)([O-])OC1CC[N+](C)(C)CC1 [Perifosine] + C[C@@H](N)c1ccc(C(=O)Nc2ccnc3[nH]ccc23)cc1 [RKI983] (partner dose 2 µM),88.2,87.7,92.1,125,71.2,52,59,92.9,28.1,46,61.5,87.8,78.9,66.7,80,58.6,105,51.7,41.4,79.7
C[C@@H](N)c1ccc(C(=O)Nc2ccnc3[nH]ccc23)cc1 + COc1cc2c(Oc3ccc4[nH]c(C)cc4c3F)ncnc2cc1OCCCN1CCCC1 [cediranib] (partner dose 2 µM),81.6,97.6,103,103,66.8,81.5,55,75,46.6,59.3,83,115,114,46.5,57.8,86.4,72.3,35.3,51.8,81.6
C[C@@H](N)c1ccc(C(=O)Nc2ccnc3[nH]ccc23)cc1 + O=C(O)c1ccc(-c2c[nH]c3ncc(-c4ccccc4)cc23)cc1C1CCCC1 [GSK650394] (partner dose 0.8 µM),79.5,89.3,71.7,108,67.7,68.8,60.8,73.3,52.2,56.4,64.7,90.8,93.8,49.5,61.9,83.4,94.3,21.8,61.3,78.4
CCCCCCCCCCCCCCCCCCOP(=O)([O-])OC1CC[N+](C)(C)CC1 [Perifosine] + Nc1ccn([C@@H]2O[C@H](CO)[C@@H](O)C2(F)F)c(=O)n1 [gemcitabine] (partner dose 0.002 µM),44.7,46.1,39.7,56.3,52.7,64.5,78.8,48.4,18.7,63.8,61.6,83.9,71.2,93,105,75.1,71.7,59.7,52.8,72.1
C[C@@H](N)c1ccc(C(=O)Nc2ccnc3[nH]ccc23)cc1 + Nc1cccc2c1CN(C1CCC(=O)NC1=O)C2=O [lenalidomide] (partner dose 5 µM),86,103,87.8,102,101,70.6,53.4,74.9,71.6,57.8,60.6,85.9,86.1,69,79.5,90.8,107,50.1,53.9,76.2
CCCCCCCCCCCCCCCCCCOP(=O)([O-])OC1CC[N+](C)(C)CC1 [Perifosine] + C[C@@H]1CCN(C(=O)CC#N)C[C@@H]1N(C)c1ncnc2[nH]ccc12 [CP690550] (partner dose 5 µM),85.7,97.4,98.1,79.4,108,76.9,118,106,22.1,99.6,72.8,104,78,114,118,111,85.2,71,68.8,90.3
C[C@@H](N)c1ccc(C(=O)Nc2ccnc3[nH]ccc23)cc1 + CCCS(=O)(=O)Nc1ccc(F)c(C(=O)c2c[nH]c3ncc(Cl)cc23)c1F [PLX4720] (partner dose 0.4 µM),72.2,87.8,66.6,96,91.7,48.5,44.6,67.9,49.6,48,65.5,92.4,70.2,38.5,48.9,62.1,71.5,43.5,47.6,39.7
Cn1sc(=O)n(Cc2ccccc2)c1=O + Cc1cc(N2CCOCC2)cc2[nH]c(-c3c(NC[C@@H](O)c4cccc(Cl)c4)cc[nH]c3=O)nc12 [BMS536924] (partner dose 1 µM),75.5,82.7,90.9,79.4,82.9,104,109,72,96.2,107,88.4,87.8,80.9,66.5,106,75.4,68,95.4,47.6,72.2
C[C@@H](N)c1ccc(C(=O)Nc2ccnc3[nH]ccc23)cc1 + COc1cc(Nc2ncc(F)c(Nc3ccc4c(n3)NC(=O)C(C)(C)O4)n2)cc(OC)c1OC [Tamatinib] (partner dose 2 µM),54,79.3,43.4,89.3,23.7,61.5,39.5,38.3,11.1,60.7,44.2,64.5,68.8,31.4,66.2,65,79.1,31.9,19.3,57.9
CCCCCCCCCCCCCCCCCCOP(=O)([O-])OC1CC[N+](C)(C)CC1 [Perifosine] + C=CCNC1=C2C[C@@H](C)C[C@H](OC)[C@H](O)[C@@H](C)/C=C(\C)[C@H](OC(N)=O)[C@@H](OC)/C=C\C=C(/C)C(=O)NC(=CC1=O)C2=O [Tanespimycin] (partner dose 0.01 µM),78.7,95.4,68.9,82.5,88.8,89,125,76,3.49,68.7,55.2,92.2,80.5,68.6,81.2,56.6,24.5,73.7,60.2,91.6
C[C@@H](N)c1ccc(C(=O)Nc2ccnc3[nH]ccc23)cc1 + Cn1cnc2c(F)c(Nc3ccc(Br)cc3Cl)c(C(=O)NOCCO)cc21 [selumetinib] (partner dose 0.075 µM),72.6,47.3,74.8,35,86.1,43.7,32.5,64,38.6,33.6,55.9,55.3,53,54.2,47.4,62,72.1,56.6,49.1,53.2
C[C@@H](N)c1ccc(C(=O)Nc2ccnc3[nH]ccc23)cc1 + Cn1sc(=O)n(Cc2ccccc2)c1=O [TDZD-8] (partner dose 2 µM),84.5,73.8,107,77.2,98.3,51.1,49.6,64.6,40.2,30,73.1,78.6,81.7,53,53.2,84.6,92.2,11,40.9,83.9
Cn1sc(=O)n(Cc2ccccc2)c1=O + CC(C)C[C@H](NC(=O)[C@H](Cc1ccccc1)NC(=O)c1cnccn1)B(O)O [Bortezomib] (partner dose 0.005 µM),2.11,8.92,21.3,1.83,20.7,36.7,5.37,19,4.06,33,23.2,47.6,34,34.1,86.3,58.9,47.5,12.6,15.8,26.2
Cn1sc(=O)n(Cc2ccccc2)c1=O + Nc1nc(F)nc2c1ncn2[C@@H]1O[C@H](CO)[C@@H](O)[C@@H]1O [fludarabine] (partner dose 1 µM),85.9,71.8,69.5,80.4,95.7,71.2,87.4,89,49.2,67.9,1.55,1.52,16.6,27.5,32.5,82.5,86.4,82.8,125,21.1
C[C@@H](N)c1ccc(C(=O)Nc2ccnc3[nH]ccc23)cc1 + Cc1nc(Nc2ncc(C(=O)Nc3c(C)cccc3Cl)s2)cc(N2CCN(CCO)CC2)n1 [dasatanib] (partner dose 0.02 µM),89,80.8,80.5,116,22.9,65.9,43.2,65.9,44,40.7,67.9,83.5,106,62,58.4,89.1,91.2,31.1,33.7,91.3
